Measured values from the supplement of paper PMC4967469.
The IC50 comes from the fitted curve, where viability falls to half of the control; where the fit passes the top or lowest dose, that dose stands as a limit. AUC, from the same fit, is the share of area under the viability curve across the 256-fold dose range; values near 1 show little effect. For part of these data: The top dose, if marked as inferred, comes from the curve model; the source does not state it.

Assays:
Experiment in all cases: Viability of human cancer cell lines after 72 h of drug (GDSC screen)
NU-7441 = compound: O=c1cc(N2CCOCC2)oc2c(-c3cccc4c3sc3ccccc34)cccc12 [NU-7441]; conditions: top dose 2 µM; top dose inferred
Description: (§1)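 Human cancer cell lines in 384-well plates, medium with 10% serum, drug for 72 h over a 256-fold dose range (nine 2-fold or five 4-fold steps up to the top dose). Adherent lines were fixed and stained with the nucleic acid dye Syto60, suspension lines read with resazurin; signal relative to control wells, capped at 0 and 100%. One two-parameter sigmoid per drug and line, fitted in a mixed model over all curves with the slope shared within a line.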

QL-XI-92 = compound: C=CC(=O)Nc1cc(NC(=O)c2ccc(C)c(NC(=O)c3ccno3)c2)cc(C(F)(F)F)c1 [QL-XI-92]; conditions: top dose 10.24 µM; top dose inferred
Description: as §1

XL-184 = compound: COc1cc2nccc(Oc3ccc(NC(=O)C4(C(=O)Nc5ccc(F)cc5)CC4)cc3)c2cc1OC [XL-184]; conditions: top dose 5.12 µM; top dose inferred
Description: as §1

WHI-P97 = compound: COc1cc2ncnc(Nc3cc(Br)c(O)c(Br)c3)c2cc1OC [WHI-P97]; conditions: top dose 10.24 µM; top dose inferred
Description: as §1

Gefitinib = compound: COc1cc2ncnc(Nc3ccc(F)c(Cl)c3)c2cc1OCCCN1CCOCC1 [Gefitinib]; conditions: top dose 0.5 µM
Description: as §1

Phenformin = compound: N=C(N)NC(=N)NCCc1ccccc1 [Phenformin]; conditions: top dose 4000 µM; top dose inferred
Description: as §1

EHT 1864 = compound: O=c1cc(CN2CCOCC2)occ1OCCCCCSc1ccnc2cc(C(F)(F)F)ccc12 [EHT 1864]; conditions: top dose 10 µM; top dose inferred
Description: as §1

AG-014699 = compound: CNCc1ccc(-c2[nH]c3cc(F)cc4c3c2CCNC4=O)cc1 [AG-014699]; conditions: top dose 5 µM; top dose inferred
Description: as §1

Cell Line	AUC (NU-7441)	IC50 (NU-7441)	AUC (QL-XI-92)	IC50 (QL-XI-92)	AUC (XL-184)	IC50 (XL-184)	AUC (WHI-P97)	IC50 (WHI-P97)	AUC (Gefitinib)	IC50 (Gefitinib)	AUC (Phenformin)	IC50 (Phenformin)	AUC (EHT 1864)	IC50 (EHT 1864)	AUC (AG-014699)	IC50 (AG-014699)
CADO-ES1 (Ewing sarcoma, suspension)	0.976	> 2 µM	0.905	> 10.2 µM	0.919	> 5.12 µM	0.952	> 10.2 µM	0.967	> 0.5 µM	0.986	> 4000 µM	0.876	> 10 µM	0.979	> 5 µM
CL-40 (large intestine, adherent)	0.974	> 2 µM							0.975	> 0.5 µM			0.939	> 10 µM	0.967	> 5 µM
CML-T1 (chronic myeloid leukaemia, suspension)	0.981	> 2 µM							0.987	> 0.5 µM			0.975	> 10 µM	0.985	> 5 µM
COR-L321 (lung, suspension)	0.987	> 2 µM	0.854	8.02 µM	0.971	> 5.12 µM	0.969	> 10.2 µM	0.978	> 0.5 µM	0.898	> 4000 µM	0.924	> 10 µM	0.982	> 5 µM
CRO-AP2 (B-cell lymphoma, suspension)	0.932	> 2 µM							0.99	> 0.5 µM			0.956	> 10 µM	0.965	> 5 µM
D-423MG (glioma, adherent)	0.832		0.863	> 10.2 µM	0.888	> 5.12 µM	0.959	> 10.2 µM	0.97	> 0.5 µM	0.733	1360 µM	0.858	> 10 µM	0.973	> 5 µM
D-566MG (glioma, adherent)	0.957	> 2 µM	0.939	> 10.2 µM	0.897	> 5.12 µM	0.969	> 10.2 µM	0.958	> 0.5 µM	0.905	> 4000 µM	0.952	> 10 µM	0.939	> 5 µM
DIFI (large intestine, adherent)	0.986	> 2 µM							0.532	0.0383 µM			0.971	> 10 µM	0.987	> 5 µM
DOV13 (ovary, adherent)	0.923	> 2 µM	0.983	> 10.2 µM	0.938	> 5.12 µM	0.908	> 10.2 µM	0.915	> 0.5 µM	0.964	> 4000 µM	0.927	> 10 µM	0.967	> 5 µM
EMC-BAC-1 (lung adenocarcinoma, adherent)	0.942	> 2 µM	0.886	> 10.2 µM	0.911	> 5.12 µM	0.757	3.97 µM	0.796	0.271 µM	0.973	> 4000 µM			0.979	> 5 µM
EMC-BAC-2 (lung adenocarcinoma, adherent)	0.956	> 2 µM	0.908	> 10.2 µM	0.948	> 5.12 µM	0.953	> 10.2 µM	0.979	> 0.5 µM	0.97	> 4000 µM	0.967	> 10 µM	0.982	> 5 µM
ESO26 (oesophagus, adherent)	0.985	> 2 µM	0.912	> 10.2 µM	0.923	> 5.12 µM	0.93	> 10.2 µM	0.909	> 0.5 µM	0.983	> 4000 µM	0.981	> 10 µM	0.989	> 5 µM
ESO51 (oesophagus, semi-adherent)	0.936	> 2 µM	0.955	> 10.2 µM	0.313	0.0764 µM	0.97	> 10.2 µM	0.918	> 0.5 µM	0.976	> 4000 µM	0.972	> 10 µM		
EW-22 (Ewing sarcoma, adherent)	0.959	> 2 µM							0.985	> 0.5 µM			0.891	> 10 µM	0.879	4.75 µM
FLO-1 (oesophagus, adherent)	0.909	> 2 µM	0.902	> 10.2 µM	0.863	> 5.12 µM	0.903	> 10.2 µM	0.969	> 0.5 µM	0.927	> 4000 µM	0.901	> 10 µM	0.959	> 5 µM
HCC-366 (non-small cell lung carcinoma, adherent)	0.97	> 2 µM							0.968	> 0.5 µM			0.977	> 10 µM	0.988	> 5 µM
Hey (ovary, adherent)	0.948	> 2 µM	0.933	> 10.2 µM	0.955	> 5.12 µM	0.98	> 10.2 µM	0.982	> 0.5 µM	0.972	> 4000 µM	0.942	> 10 µM	0.924	> 5 µM
JEKO-1 (B-cell lymphoma, suspension)	0.751	0.634 µM							0.97	> 0.5 µM			0.934	> 10 µM	0.978	> 5 µM
JHOS-2 (ovary, adherent)	0.909	> 2 µM	0.931	> 10.2 µM	0.921	> 5.12 µM	0.854	> 10.2 µM	0.862	> 0.5 µM	0.978	> 4000 µM	0.975	> 10 µM	0.965	> 5 µM
JHOS-3 (ovary, adherent)	0.979	> 2 µM	0.96	> 10.2 µM	0.944	> 5.12 µM	0.899	> 10.2 µM	0.973	> 0.5 µM	0.967	> 4000 µM	0.963	> 10 µM	0.974	> 5 µM
JHOS-4 (ovary, adherent)	0.976	> 2 µM							0.969	> 0.5 µM			0.948	> 10 µM	0.979	> 5 µM
Jurkat (T-cell leukaemia, suspension)	0.993	> 2 µM							0.991	> 0.5 µM			0.891	7.97 µM	0.993	> 5 µM
KARPAS-1106P (B-cell lymphoma, suspension)	0.939	> 2 µM							0.993	> 0.5 µM			0.993	> 10 µM	0.965	> 5 µM
KATOIII (stomach, semi-adherent)	0.972	> 2 µM							0.981	> 0.5 µM			0.984	> 10 µM	0.936	> 5 µM

Cell Line	AUC (NU-7441)	IC50 (NU-7441)	AUC (QL-XI-92)	IC50 (QL-XI-92)	AUC (XL-184)	IC50 (XL-184)	AUC (WHI-P97)	IC50 (WHI-P97)	AUC (Gefitinib)	IC50 (Gefitinib)	AUC (Phenformin)	IC50 (Phenformin)	AUC (EHT 1864)	IC50 (EHT 1864)	AUC (AG-014699)	IC50 (AG-014699)
KNS-62 (lung squamous cell carcinoma, adherent)	0.932	> 2 µM							0.927	> 0.5 µM			0.96	> 10 µM	0.963	> 5 µM
MEL-HO (melanoma, adherent)	0.908	> 2 µM							0.977	> 0.5 µM			0.986	> 10 µM	0.986	> 5 µM
MHH-CALL-2 (B-cell leukaemia, suspension)	0.988	> 2 µM							0.986	> 0.5 µM			0.979	> 10 µM	0.995	> 5 µM
MKN7 (stomach, adherent)	0.946	> 2 µM							0.935	> 0.5 µM			0.971	> 10 µM	0.936	> 5 µM
MM1S (myeloma, suspension)	0.948	> 2 µM							0.973	> 0.5 µM			0.885	> 10 µM	0.988	> 5 µM
MOLM-16 (acute myeloid leukaemia, suspension)	0.885	1.73 µM							0.963	> 0.5 µM			0.848	6.12 µM	0.973	> 5 µM
MOLT-16 (T-cell lymphoblastic leukaemia, suspension)	0.991	> 2 µM							0.97	> 0.5 µM			0.799	3.72 µM	0.911	4.58 µM
NCC010 (kidney, adherent)	0.969	> 2 µM							0.983	> 0.5 µM			0.966	> 10 µM	0.982	> 5 µM
NCI-H146 (small cell lung carcinoma, suspension)	0.981	> 2 µM							0.992	> 0.5 µM			0.99	> 10 µM	0.987	> 5 µM
NCI-H508 (large intestine, semi-adherent)	0.833	> 2 µM							0.719	0.203 µM			0.944	> 10 µM	0.904	> 5 µM
NCI-H835 (lung carcinoid, suspension)	0.991	> 2 µM							0.988	> 0.5 µM			0.973	> 10 µM	0.991	> 5 µM
NCI-H929 (myeloma, suspension)	0.836	1.06 µM							0.96	> 0.5 µM			0.946	> 10 µM	0.99	> 5 µM
NCI-H1341 (small cell lung carcinoma, suspension)	0.99	> 2 µM							0.989	> 0.5 µM			0.985	> 10 µM	0.992	> 5 µM
NCI-N87 (stomach, adherent)	0.974	> 2 µM							0.975	> 0.5 µM			0.933	> 10 µM	0.957	> 5 µM
OCI-LY7 (B-cell lymphoma, suspension)	0.896	1.23 µM							0.991	> 0.5 µM			0.94	8.78 µM	0.995	> 5 µM
PWR-1E (prostate, adherent)	0.962	> 2 µM							0.983	> 0.5 µM			0.987	> 10 µM	0.976	> 5 µM
RCH-ACV (B-cell leukaemia, suspension)	0.898	1.72 µM							0.982	> 0.5 µM			0.959	> 10 µM	0.952	> 5 µM
RH-18 (rhabdomyosarcoma, adherent)	0.888	> 2 µM							0.966	> 0.5 µM			0.95	> 10 µM	0.947	> 5 µM
SK-GT-2 (stomach, adherent)	0.968	> 2 µM							0.933	> 0.5 µM			0.933	> 10 µM	0.986	> 5 µM
SK-MEL-31 (melanoma, adherent)	0.969	> 2 µM							0.983	> 0.5 µM			0.967	> 10 µM	0.985	> 5 µM
SUP-B8 (B-cell leukaemia, suspension)	0.898	> 2 µM							0.989	> 0.5 µM			0.933	> 10 µM	0.989	> 5 µM
TC-YIK (cervix, suspension)	0.97	> 2 µM							0.984	> 0.5 µM			0.915	> 10 µM	0.991	> 5 µM
VMRC-LCD (lung adenocarcinoma, adherent)	0.984	> 2 µM							0.992	> 0.5 µM			0.91	> 10 µM	0.992	> 5 µM
ZR-75-30 (breast, adherent)	0.981	> 2 µM							0.98	> 0.5 µM			0.921	> 10 µM	0.983	> 5 µM
